Measured values: PubChem BioAssay AID624417 (National Center for Advancing Translational Sciences (NCATS), 2012)
Among all 410,000 compounds or so, about 6,400 (1.6%) were called active. Inconclusive results, whose numbers are uncertain, are shown with a selection of clear calls. Calls follow the shape of the dose curve; as a rule, active = well fitted inhibition curve with a large enough effect; inconclusive = small, poorly fitted or top-dose-only effect; inactive = no such curve, though single readings can be large or run the other way. No potency is given beside an inconclusive call; the fits are too rough.

These compounds were tested against Glucagon-like peptide 1 receptor (Homo sapiens) (UniProt P43220) (assay: qHTS of GLP-1 Receptor Inverse Agonists (Inhibition Mode)). Settings: HEK293 GLP-1R CRE-luciferase, luminescence, 24 h, GLP-1R form is constitutively active; series mostly up to 38.3 µM.
Chain of UniProt P43220 (P43220 whole entry, looked up): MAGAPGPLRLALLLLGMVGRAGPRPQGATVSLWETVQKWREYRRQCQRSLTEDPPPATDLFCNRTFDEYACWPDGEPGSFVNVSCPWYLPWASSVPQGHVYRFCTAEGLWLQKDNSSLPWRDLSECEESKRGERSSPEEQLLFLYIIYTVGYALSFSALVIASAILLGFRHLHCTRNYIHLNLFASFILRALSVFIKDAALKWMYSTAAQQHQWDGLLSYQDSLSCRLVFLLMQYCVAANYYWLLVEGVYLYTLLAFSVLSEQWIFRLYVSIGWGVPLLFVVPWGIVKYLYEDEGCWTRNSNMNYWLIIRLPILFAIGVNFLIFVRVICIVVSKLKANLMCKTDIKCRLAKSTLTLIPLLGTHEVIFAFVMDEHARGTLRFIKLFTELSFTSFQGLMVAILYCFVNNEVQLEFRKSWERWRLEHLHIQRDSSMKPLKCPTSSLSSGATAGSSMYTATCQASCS
How it was run: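 HEK293 cells stably co-expressing constitutively active GLP-1R and a cAMP-responsive luciferase reporter were seeded in DMEM with 10% Nu serum, given compounds after 12 h, and incubated 24 h at 37 deg C. Luminescence was then read.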
Also: nearly all actives have a fitted effect of over 55% in size.
Potency is read from the fitted curve at half-maximal effect; tags tell the direction and shape of the fitted curve.

SMILES	Potency
CC(=O)c1nn(-c2ccc(OC(F)(F)F)cc2)nc1Nc1ccccc1	inactive
Cc1noc(C)c1CSCc1ccc(Cl)cc1	inconclusive [inhibitor, single point]
Cc1ccccc1Nc1nnc(SCC(=O)c2ccc(O)cc2O)s1	inconclusive [inhibitor, partial curve]
Cc1c(Cl)c(C(=O)N2CCCC2)nn1C	inactive
Cc1onc(-c2ccc(Cl)cc2)c1-c1ccnn1S(=O)(=O)c1cccc(C(F)(F)F)c1	inconclusive [inhibitor, partial curve, poor fit]
O=C(CN1N=C(C(F)(F)F)CC1(O)c1ccc([N+](=O)[O-])cc1)c1ccccc1 (stereo not drawn)	inconclusive [inhibitor, single point]
CCCCOc1cccc(C(=O)Nc2ccc(N3CCN(CC)CC3)cc2)c1	inconclusive [inhibitor, full curve]
C/C(=N/OC(=O)c1ccccc1Br)c1ccc(C)cc1	inconclusive [inhibitor, single point]
CCCCNC(=S)NCC(c1ccccc1)c1c[nH]c2ccccc12 (stereo not drawn)	inconclusive [inhibitor, partial curve, poor fit]
CCC(O)(CC)C(=O)N/N=C/c1cc(Br)cc(Br)c1O	inconclusive [inhibitor, partial curve, poor fit]
O=[N+]([O-])c1ccc(-n2nnnc2-c2ccccc2)c([N+](=O)[O-])c1	inconclusive [inhibitor, single point]
O=C(Cn1ncc2ccccc21)N1CCN(c2cccc(C(F)(F)F)c2)CC1	inconclusive [inhibitor, single point]
COc1ccccc1NC(=O)C(C)Sc1nc(-c2ccccc2)cn1N (stereo not drawn)	inconclusive [inhibitor, single point]
CC(=O)Oc1ccc(-n2c(=O)c3ccccc3c3ccccc3c2=O)cc1	inactive
CCOC(=O)c1c(NC(=O)C(NCCN(C)C)c2ccccc2)sc2c1CCCC2 (stereo not drawn)	inconclusive [inhibitor, partial curve, poor fit]
CCCCCC(=O)N1C[C@@H](n2cc(C3CC3)nn2)[C@H](O)C[C@@H]1c1ccc(C)cc1	inconclusive [inhibitor, single point]
CCN(CC)CCNc1nc2c(c(=O)[nH]c(=O)n2C)n1CC(O)COc1ccc(Cl)cc1Cl (stereo not drawn)	inconclusive [inhibitor, full curve, poor fit]
COc1ccc2nc(NC(=O)c3cccc(OCc4c(C)noc4C)c3)sc2c1	inconclusive [inhibitor, full curve, poor fit]
COc1ccccc1-c1cc(NC(C)=O)c2ncc(-c3cccc(C(C)=O)c3)n2c1	inactive
COc1ccc(-n2c(-c3ccc(Br)cc3)nc(=S)c3c2CCCC3)cc1	inconclusive [inhibitor, partial curve, poor fit]
CC1=CC(=O)Nc2ncccc2O1	inconclusive [inhibitor, partial curve, poor fit]
CC(C)(C)CC(=O)NC(=S)NCc1ccco1	inconclusive [inhibitor, partial curve]
COc1ccc(-c2nc(NC(=O)CSc3nnc(C)s3)ns2)cc1	inactive

SMILES	Potency
CCN1/C(=C/c2sc(-c3ccccc3C)c[n+]2C)Sc2ccccc21	inconclusive [inhibitor, full curve, poor fit]
Cc1ccc(NC(=O)c2ccc(C(C)(C)C)cc2)cc1-n1cnnn1	inconclusive [inhibitor, full curve, poor fit]
CC(=O)c1cccc(-c2ccnc3c2CC(C(=O)NCc2cccs2)O3)c1 (stereo not drawn)	inconclusive [inhibitor, full curve, poor fit]
CN(C)S(=O)(=O)c1cccc(CNCC2COc3ccccc3O2)c1 (stereo not drawn)	inactive
CC(OC(=O)CC1CCCCC1)C(=O)Nc1ccc(F)cc1 (stereo not drawn)	inconclusive [inhibitor, single point]
C=CCc1ccc(OCC(O)CO)c(OC)c1 (stereo not drawn)	inactive
Nc1ncnc(Sc2ccccc2)c1[N+](=O)[O-]	inconclusive [inhibitor, partial curve]
Cc1nn(-c2ccccc2)c(Cl)c1C1C(C#N)=C(N)OC2=C1C(=O)CCC2 (stereo not drawn)	inconclusive [inhibitor, partial curve]
O=C(Nc1ccc(/C=C/c2nc3ccccc3o2)cc1)c1cccc(C(F)(F)F)c1	active: 3.16 µM
CCOC(=O)C1(C)CCN1C(=O)c1cccc(OC)c1 (stereo not drawn)	inactive
CS(=O)(=O)c1cccc(-c2nnc(NC(=O)c3ccc4c(c3)OCCO4)o2)c1	inactive
Clc1ccc2c(N/N=C/c3ccccc3Br)ccnc2c1	inactive
CCCN(CC(=O)Nc1ccccc1C)C(=O)Cc1coc2cc(C)ccc12	inconclusive [inhibitor, partial curve, poor fit]
Cc1cc(C(C)(C)C)cc(C)c1COC(=O)c1cccnc1	inconclusive [inhibitor, partial curve, poor fit]
Oc1ccc(-c2nnc(SCC3CCCCC3)o2)cc1	inconclusive [inhibitor, single point]
CN(C)c1oc(-c2ccc(COc3ccccc3)o2)nc1C#N	inactive
CCc1ccccc1Oc1nc(NCCOC)nc2cc(-c3ccccc3)sc12	inactive
Cc1c(CC(=O)O)c(=O)oc2cc3oc4c(c3cc12)CCCC4	inactive
COc1cccc(CN2CCN(C3CCN(c4ccccc4F)CC3)CC2CCO)c1 (stereo not drawn)	inconclusive [inhibitor, partial curve, poor fit]
Cc1cc(C)cc(NC(=O)CSc2nc(=O)[nH]c3c2CCC3)c1	inactive
O=C(CN1CCN(c2ccccn2)CC1)Nc1cccc(S(=O)(=O)N2CCOCC2)c1	inconclusive [inhibitor, single point]
O=C(CC(CC(=O)c1ccccc1)c1ccco1)c1ccccc1	inconclusive [inhibitor, partial curve, poor fit]
CCc1ccc(NC(=O)CC2C(=O)N(c3ccc(C)cc3)C(=O)N2C2CCCC2)cc1 (stereo not drawn)	inconclusive [inhibitor, partial curve, poor fit]

SMILES	Potency
CSc1cccc(NC(=O)C2CCCN(C(=O)c3cnn(-c4ccc(F)cc4)c3-n3cccc3)C2)c1 (stereo not drawn)	inconclusive [inhibitor, single point]
S=C1NC[C@H](Cc2ccccc2)N1CCc1cccc2ccccc12	inconclusive [inhibitor, single point]
COc1cccc(-c2cnc3c(NC=O)cc(-c4ccccc4)cn23)c1	inconclusive [inhibitor, partial curve, poor fit]
O=C(Cc1ccc(Cl)cc1)Nc1ccc(C(=O)N2CCCCC2)cc1	inconclusive [inhibitor, partial curve, poor fit]
COc1cccc(OC)c1OCCCOc1c(OC)cccc1OC	inconclusive [inhibitor, single point]
CN(C)c1ccc(/C=N\NC(=O)c2csnn2)cc1	inconclusive [inhibitor, single point]
CCCN(CCC)CCCNC(=O)C1CCN(c2nc3ccc(CC)cc3s2)CC1	inactive
Cc1cc(C(O)c2ncc(-c3ccccc3Cl)[nH]2)ccc1F (stereo not drawn)	inactive
Oc1ccccc1Oc1ncc(Br)c(N2CCOCC2)n1	inconclusive [inhibitor, single point]
O=C(CSc1cn(CC(=O)N2CCCCC2)c2ccccc12)NCc1ccc(F)cc1	inconclusive [inhibitor, partial curve, poor fit]
Cc1ccc(/C=N/Nc2nc(Cl)c(Cl)cc2Cl)s1	inconclusive [inhibitor, single point]
COc1ccc(CCC(=O)N2c3ccccc3N=C(c3ccc4c(c3)OCO4)C2C(=O)Nc2ccc(OC)cc2)cc1 (stereo not drawn)	inconclusive [inhibitor, partial curve, poor fit]
O=C(Nc1ccccc1N1CCCCC1)c1ccc(F)cc1	inconclusive [inhibitor, partial curve, poor fit]
c1ccc(NC2=NCCN2CCC2CCCCC2)cc1	inactive
O=C(NCCCN1CCCC1)c1ccc(CS(=O)(=O)c2ccc(Br)cc2)o1	inconclusive [inhibitor, single point]
c1ccc(CCNCC2COc3ccccc3O2)cc1 (stereo not drawn)	inconclusive [inhibitor, single point]
Clc1ccc(C2=CSC3=NCCN23)c(Cl)c1	inconclusive [inhibitor, partial curve]
CCOc1cc(-c2c(C#N)c(N)nc3c2CCCC3C)ccc1O (stereo not drawn)	inconclusive [inhibitor, single point]
Cc1c(-c2ccc(Cl)cc2)c(=O)oc2c(CN3CCN(CCO)CC3)c(O)ccc12	inconclusive [inhibitor, partial curve, poor fit]
CCOc1ccc(CCNC(=O)c2cc3c(=O)n(C)c4ccccc4c3n2C)cc1OCC	inactive
COc1ccc(S(=O)(=O)N(CC(=O)Nc2cc(C)ccc2OC)Cc2ccccc2)cc1	inconclusive [inhibitor, single point]
CCOc1ccccc1NS(=O)(=O)c1ccc2[nH]c3c(c2c1)CCCCC3	inconclusive [inhibitor, single point]
